57 sequences from the supplement of paper PMC11417369 can be followed below.

± gives the standard deviation of the averaged measurements. The list shows a part of the results.

In this assay the test system is PfAP2-EXP AP2 domain (GST-tagged). Put plainly: gcPBM binding intensity (ln(normalized median fluorescence intensity)); higher = stronger DNA binding. The method, boiled down:
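The binding buffer was 1× PBS containing 1% milk, 0.2 mg/ml BSA, 0.5% salmon testes DNA and 0.03% Triton X-100. In it, GST-tagged P. falciparum DNA-binding domains expressed in E. coli were applied for 1 h to an Agilent 4 × 180k array of primer-extended double-stranded 36-bp intergenic genomic probes plus negative controls. Binding intensity, read with Alexa488 anti-GST antibody and a 488 nm scan, is the highest Masliner-normalised natural-log median intensity across replicate spots of either probe orientation.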
Consider “TTTTGGTATACGTAATTATATAATATGTTAATCAAT [CACACA_negctrl_site645]”, for which the “gcPBM binding intensity (ln)” value was found to be 8.52 ± 0.44.

For “AATGTAGACACATATGTACACACATATATATGTATA [CACACA_site9014]”, the “gcPBM binding intensity (ln)” value was 8.57 ± 0.37. “AATATTCTATATGATACATGCATGATGGAATAAAAA [TGCATGCA_site980]”: the “gcPBM binding intensity (ln)” value is 9.16 ± 0.35. Take “ATTATATATATATTATGTACATATATTGAAGTGGAT [XGTACX_site5916]”: the “gcPBM binding intensity (ln)” value stood at 8.97 ± 0.49.

In the case of “TACGAAATCATATGTACACACACATATATATATATA [CACACA_site5216]”, the “gcPBM binding intensity (ln)” value worked out at 10.1 ± 0.39. For “ACGGATTAAAAAATGTGTACGCACAAAAAAAAAAAT [XGTACX_site8259]”, the “gcPBM binding intensity (ln)” value worked out at 8.66 ± 0.16. Take “ATATATATATATATATGTACTTAATGTTATTATATA [XGTACX_site4508]”: the “gcPBM binding intensity (ln)” value was 9.98 ± 0.45.

Regarding “TGTTCAGTATTGCACACACACAACAAAATAAAAAAA [CACACA_site6314]”, the “gcPBM binding intensity (ln)” value was 8.62 ± 0.38. Regarding “GAAATGTGATAATATACACACACGCATATATATATA [CACACA_site4332]”, the “gcPBM binding intensity (ln)” value worked out at 9.86 ± 0.3.

For the sequence “TGAAAATATATAACGCGTACAAAAAGGAAATACAAT [XGTACX_site3534]”, the “gcPBM binding intensity (ln)” value was found to be 9.1 ± 0.57. For AAATAGTTGTTAAAGGTGCACAATATGGATATAAGA, the “gcPBM binding intensity (ln)” value was determined as 9.88 ± 0.52. The same measure for “TTTTTTTTTTTTTTTGCATGTTGAAAATAAAATTAT [TGCATGCA_site86]”: 8.2 ± 0.46; for ATTTATTTTAAATAAGTGCAAAATGGTTATAAATAA: 8.86 ± 0.33. For the sequence “ATGTACTATAGGCACACACACTCACATATATATATA [CACACA_site5745]”, the “gcPBM binding intensity (ln)” value is 9.96 ± 0.22. In the case of “ATAAATATTTTGTAAGCATGCTTTTAAAAAAAGAAA [TGCATGCA_site572]”, the “gcPBM binding intensity (ln)” value came out at 8.63 ± 0.51. “AAAATTTCAATAAATACACACATATAAATATAGATT [CACACA_site6893]”: the “gcPBM binding intensity (ln)” value is 8.32 ± 0.38. As to ATATATTTTTATATAGTGCAAGTAATAAAAAGGAAT, the “gcPBM binding intensity (ln)” value amounted to 9.06 ± 0.29.

With “GGAAAAAAATAAAATAAGTATTTTACATACATATTG [TGCATGCA_negctrl_site10]”, the “gcPBM binding intensity (ln)” value was 8.13 ± 0.37. For “AAAACTTTTTTAACAGAAAAATAGGGATACAATATA [CACACA_negctrl_site1708]”, the “gcPBM binding intensity (ln)” value was determined as 8.84 ± 0.66. “ATATCATTTTATTTGTGTACTTAAAAAGTTGCAATG [XGTACX_site4099]”: the “gcPBM binding intensity (ln)” value turned out to be 8.6 ± 0.28. In the case of “ATAACATTCAAAAAATGTACAAACATATGAATAAAT [XGTACX_site7013]”, the “gcPBM binding intensity (ln)” value amounted to 8.62 ± 0.47.

On to “GGAATAACCAGACACACACACACATATAAATATGTA [CACACA_site7632]”, for which the “gcPBM binding intensity (ln)” value is 8.51 ± 0.49. For the sequence “TAAATACAAGAACTGACACACATACATACTACATTT [CACACA_site5561]”, the “gcPBM binding intensity (ln)” value was found to be 8.62 ± 0.49. As to “GAACATTACGTAAATAAATAAATAAAAATAAATACA [XGTACX_negctrl_site25]”, the “gcPBM binding intensity (ln)” value is 8.71 ± 0.57.

Consider “AAAAAACTTCACATATGTACTTAAAAAAAATTAAAA [XGTACX_site2368]”, for which the “gcPBM binding intensity (ln)” value turned out to be 8.38 ± 0.38. The same measure for “ATAAAGTCTATATTATGTACATATAATATAAATATT [XGTACX_site6703]”: 8.38 ± 0.31.

“CAAAAAAAAATCTGTAGTACTTATTAATATTGCTGT [XGTACX_site4767]”: the “gcPBM binding intensity (ln)” value was found to be 8.38 ± 0.26.

Turning to “TATTGTCTTGTATATGCATGTAGACCAAATATGTAA [TGCATGCA_site9]”, the “gcPBM binding intensity (ln)” value was 8.72 ± 0.33.

Regarding “AAATCAAATTTTTAGAGTACTTAAGTTTTCTATATA [XGTACX_site7827]”, the “gcPBM binding intensity (ln)” value amounted to 8.27 ± 0.57.

With “ATCACAAAAAAGTTCATACACACAACCTATTTATAT [CACACA_site2888]”, the “gcPBM binding intensity (ln)” value is 8.52 ± 0.36. With “TAATATATTAATATATGTACATATTTATATATCTAC [XGTACX_site7117]”, the “gcPBM binding intensity (ln)” value turned out to be 8.44 ± 0.28. Regarding “TCCCCATATGTTTTGTGTACATATATATTTTTTTGT [XGTACX_site75]”, the “gcPBM binding intensity (ln)” value was determined as 8.95 ± 0.38. Take “TCATATAAGTTTAGTAGTACTAAAAGTTAGAGAGAA [XGTACX_site3430]”: the “gcPBM binding intensity (ln)” value amounted to 8.73 ± 0.33. The same measure for “AAATAAGAGCGTAGCACACACGCATTTTATAAATGG [CACACA_site4571]”: 8.68 ± 0.37. As for “AAAACAAAAGAATTCACACATATATATATATATATA [CACACA_site4777]”, the “gcPBM binding intensity (ln)” value is 10.1 ± 0.36.

In the case of “ATATATGGAAAGAGTAGTACTATTATAGGGGTGTTA [XGTACX_site6785]”, the “gcPBM binding intensity (ln)” value is 8.95 ± 0.64.

As for “TGATTATTATAATTTAGTACATAATATTTTATATAA [XGTACX_site6125]”, the “gcPBM binding intensity (ln)” value was 7.96 ± 0.33. Take “CAAGGAACCAGACACACACACATAAATGTATATATA [CACACA_site752]”: the “gcPBM binding intensity (ln)” value turned out to be 8.53 ± 0.49. Turning to “AAAATTAACGAGTGCACACATATTTAGATAAAATAC [CACACA_site2936]”, the “gcPBM binding intensity (ln)” value is 8.8 ± 0.21. On to “TTAAACGTACATAATACACACACATGTAGACATATA [CACACA_site8635]”, for which the “gcPBM binding intensity (ln)” value was determined as 8.66 ± 0.33. The same measure for “AAAATTAAACATACATCACACATGCATTATATTATG [CACACA_site5517]”: 8.65 ± 0.51; for “ATACTTTATTAATATTGTACAAAATAAGAAAAAAAA [XGTACX_site310]”: 8.54 ± 0.38; for “ACATAAAAATTATGCACACTTAATAAAGCGAAATGT [CACACA_site3183]”: 8.78 ± 0.4. Regarding “CACAACAGGGTTGAGGTGCGTAAAAATAGTAGAATA [GTGCAC_site9523]”, the “gcPBM binding intensity (ln)” value was 8.62 ± 0.35. For the sequence “TATATATATATGTGTACACAAAAAATATTATATTAT [CACACA_site5505]”, the “gcPBM binding intensity (ln)” value was determined as 9.9 ± 0.16. For “TTTTTAATCCTTTGCGCATGTAAAATTATATATTTT [TGCATGCA_site306]”, the “gcPBM binding intensity (ln)” value is 9.01 ± 0.39. Consider “ACATAATTATTATGCACACATATTTTTATGTATTTA [CACACA_site698]”, for which the “gcPBM binding intensity (ln)” value turned out to be 8.52 ± 0.085.

Take “ATTCTATTTTTAAGTACACACATATATATATATATA [CACACA_site3658]”: the “gcPBM binding intensity (ln)” value worked out at 10.2 ± 0.42. Consider “AAACTAACTCTAACATGTACATATATATATATATAT [XGTACX_site6949]”, for which the “gcPBM binding intensity (ln)” value is 10.1 ± 0.29.

Regarding “TAATGGTGTTCATGTGGTACACTTTATAAATTGGCA [XGTACX_site729]”, the “gcPBM binding intensity (ln)” value was found to be 8.55 ± 0.3. For the sequence “TTGAAAATTCTTAAGGCACACACATATATAATATAT [CACACA_site8088]”, the “gcPBM binding intensity (ln)” value was determined as 8.6 ± 0.24. The same measure for “GCTTATTTTAATTCTTGTACTTATTTATATACAAAT [XGTACX_site2099]”: 8.91 ± 0.23; for “TTTTGAAGTAATACATGTACTTAAATTACTAAAAAA [XGTACX_site1955]”: 8.39 ± 0.4; for “ACTTTGCGTTAAAAGAGTACATAATATTTTTTTTTT [XGTACX_site7533]”: 8.34 ± 0.092. On to “TATATATATAACATATGTACATATATTTATAAATAC [XGTACX_site5484]”, for which the “gcPBM binding intensity (ln)” value amounted to 8.885 ± 0.078. Take “AATAATTTAATACATACACACGTATATCTTTTTTTT [CACACA_site8632]”: the “gcPBM binding intensity (ln)” value was 8.46 ± 0.39. Take “TATATAAATATACACCCACACACATATATATATATA [CACACA_site9247]”: the “gcPBM binding intensity (ln)” value stood at 10.2 ± 0.26.
